According to article PMC4336329 (PLoS ONE, 2015):
The whole screen tested about 310,000 compounds, of which about 2,200 (0.71%) showed an effect of 50% or more. The effect is printed as a negative number. The list shows a part of the results.

Target: human ether-à-go-go-related gene (hERG) potassium channel (human, UniProt Q12809)
Assay: primary screen, population patch clamp on CHO cells stably expressing hERG

Sequence of human ether-à-go-go-related gene (hERG) potassium channel (Q12809 whole entry, looked up): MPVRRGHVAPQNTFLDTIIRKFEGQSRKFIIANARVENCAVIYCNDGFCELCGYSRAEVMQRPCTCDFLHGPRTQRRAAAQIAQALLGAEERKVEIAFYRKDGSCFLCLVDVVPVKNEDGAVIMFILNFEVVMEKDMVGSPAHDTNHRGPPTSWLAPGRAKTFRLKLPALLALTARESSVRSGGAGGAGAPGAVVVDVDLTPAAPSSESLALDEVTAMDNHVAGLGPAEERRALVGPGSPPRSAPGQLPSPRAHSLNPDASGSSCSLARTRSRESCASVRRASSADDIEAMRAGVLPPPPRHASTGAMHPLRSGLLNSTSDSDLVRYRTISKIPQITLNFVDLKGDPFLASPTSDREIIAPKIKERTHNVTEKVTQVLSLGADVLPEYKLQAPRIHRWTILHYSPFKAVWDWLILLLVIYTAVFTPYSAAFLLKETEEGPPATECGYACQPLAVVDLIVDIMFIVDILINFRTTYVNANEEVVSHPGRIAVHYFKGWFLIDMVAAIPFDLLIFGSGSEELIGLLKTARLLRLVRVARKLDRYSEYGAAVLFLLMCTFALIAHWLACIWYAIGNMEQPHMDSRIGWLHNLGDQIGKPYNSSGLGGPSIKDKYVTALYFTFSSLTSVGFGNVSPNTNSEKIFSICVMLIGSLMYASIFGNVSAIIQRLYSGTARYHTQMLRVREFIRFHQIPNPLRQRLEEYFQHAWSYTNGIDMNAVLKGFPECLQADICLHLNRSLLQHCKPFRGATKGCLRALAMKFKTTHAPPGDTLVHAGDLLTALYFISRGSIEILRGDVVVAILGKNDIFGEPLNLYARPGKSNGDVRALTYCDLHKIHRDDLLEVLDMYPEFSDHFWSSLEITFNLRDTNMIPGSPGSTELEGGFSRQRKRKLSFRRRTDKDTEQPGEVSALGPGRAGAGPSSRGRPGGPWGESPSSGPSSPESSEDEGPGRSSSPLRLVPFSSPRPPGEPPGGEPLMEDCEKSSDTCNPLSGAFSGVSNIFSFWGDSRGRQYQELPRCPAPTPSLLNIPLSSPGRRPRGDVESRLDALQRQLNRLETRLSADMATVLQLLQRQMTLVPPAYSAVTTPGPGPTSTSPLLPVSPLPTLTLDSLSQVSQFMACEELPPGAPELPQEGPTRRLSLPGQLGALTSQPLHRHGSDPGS

| Compound | hERG current change (%, negative = inhibition) at 1uM |
| --- | --- |
| CC(=O)Nc1ccc(S(=O)(=O)NCC(=O)OCC(=O)NC23CC4CC(CC(C4)C2)C3)cc1 | 8.5% |
| COC(=O)CSc1ccc(-c2nc3ccc(C)cc3[nH]2)cn1 | 11% |
| Cn1c(CSCc2ccc(F)cc2)nnc1SCC(=O)N1CCN(c2ccccc2)CC1 | -21.3% |
| O=C(Cn1cnc2cc([N+](=O)[O-])ccc2c1=O)Nc1ccc(Br)cc1 | 21.6% |
| Cc1cc(Nc2ncc(Cl)cc2Cl)n[nH]1 | 15.4% |
| O=C(COC(=O)c1ccco1)Nc1nc2ccccc2s1 | 7.2% |
| Cc1nn(-c2cc(Cl)ccc2Cl)c(C)c1C(=O)O | 15.3% |
| CC1CCN(CC(=O)Nc2nn(-c3ccccc3)nc2C(N)=O)CC1 | 11.6% |
| CCN(Cc1nc(-c2cccc(Cl)c2)no1)CC1CCCO1 (stereo not shown) | 7.87% |
| CC(=O)Oc1ccc(Cl)cc1/C=C/c1ccc2ccccc2n1 | 9.48% |
| COc1cccc(/C=N/Nc2nc(Nc3ccccc3)nc(-n3nc(C)cc3C)n2)c1O | 12.3% |
| CC(C)(C)c1nnc2sc(SC/C(O)=C(\C#N)c3nc4ccccc4[nH]3)nn2c1=O | 9.17% |
| CC(=O)c1cccc(NC(=O)CCc2nnc3ccc(N4CCOCC4)nn23)c1 | 15.3% |
| O=C(c1cccnc1)N1CCN(c2ccc(Cl)cc2)CC1 | -4.43% |
| Cc1c(C=C2C(=O)N(C)C(=S)N(C)C2=O)c2ccccc2n1CC(=O)NCC1CCCO1 (stereo not shown) | 7.21% |
| Cc1ccc(-c2noc(CSc3ccccc3)n2)cc1 | 12.3% |
| O=c1ccc(-c2ccc(S(=O)(=O)Nc3ccc(F)cc3)o2)n[nH]1 | 2.03% |
| CCOc1cc(/C=N/NC(=O)c2ccncc2)ccc1OS(C)(=O)=O | 11% |
| Cc1ccc(C2=Nc3ccc(Br)cc3C(c3ccncc3)=NN2)cc1 | 6.1% |
| O=C(Nc1ccc(Cl)cc1C(F)(F)F)C(Sc1cccc[n+]1[O-])c1ccccc1 (stereo not shown) | -34.6% |
| Cl.c1coc(CN(Cc2ccco2)c2ncnc3c2oc2ccccc23)c1 | -6.39% |
| CCOC(=O)c1c(NC(=O)CSc2nc3c(c(=O)n(C)c(=O)n3C)n2C(C)C)sc(C)c1C | 10.5% |

| Compound | hERG current change (%, negative = inhibition) at 1uM |
| --- | --- |
| O=C(Cn1c(=O)oc2ccccc21)Nc1ccc(Br)cc1 | 12.5% |
| COc1cc2c(=O)n(Cc3ccco3)c(=O)n(CC(=O)c3cccc(Br)c3)c2cc1OC | 8.33% |
| CCN(c1ccccc1)S(=O)(=O)c1cc(C(=O)Nc2ccc(F)c(F)c2)ccc1F | 8.23% |
| CCOC(=O)/C(C#N)=C/c1ccc(-c2ccsc2C(=O)OC)o1 | 1.57% |
| COc1ccc(C(=O)OCc2cc3cccc(C)c3[nH]c2=O)cc1 | 11.5% |
| Cc1ccc(/C=C2\SC(N3CCN(C(c4ccccc4)c4ccccc4)CC3)=NC2=O)o1 | 15.2% |
| O=C(Nc1ccc(Cl)c(Cl)c1)OCCNC(=O)c1cccc(Cl)c1 | 11.2% |
| COc1ccc(-c2nnc(SCC(=O)NC3CC3)o2)cc1 | 12.9% |
| Cc1ccsc1C(=O)OCC(=O)NCc1ccc2c(c1)OCO2 | 16.9% |
| Cc1ccc(S(=O)(=O)Nc2ccc(Cl)cn2)cc1 | 12.7% |
| CCOC(=O)C1(Cc2cccc(Cl)c2)CCCN(C(=O)CCC(=O)N(C)C)C1 (stereo not shown) | 9.15% |
| CCCCCC(C)NC(=O)c1cc(S(=O)(=O)N2CCCCC2)ccc1N1CCOCC1 (stereo not shown) | -4.21% |
| COc1cccc(NC(=O)C(=O)NCC(c2ccco2)N2CCc3ccccc3C2)c1 (stereo not shown) | 8.65% |
| CCc1ccc(C2(C)SC(NC(C)=O)=NN2C(C)=O)cc1 (stereo not shown) | 6.14% |
| Cc1cccc(OCc2nnc(SCC(=O)Nc3ccc(C)c(Cl)c3)o2)c1 | 10.5% |
| COc1ccc(N(CC(=O)Nc2ccc3c(c2)OCO3)S(C)(=O)=O)c(OC)c1 | 14.5% |
| Cc1onc(-c2c(Cl)cccc2Cl)c1C(=O)N=S(C)(=O)c1ccccc1 (stereo not shown) | 15.5% |
| CCN(C(=O)c1cc2c(=O)n3ccccc3nc2s1)C1CCCCC1 | -2.02% |
| COc1nccc(NCc2ccccc2)c1C#N | 5.83% |
| COc1ccccc1NC(=O)C1C2CCCCC21 (stereo not shown) | -0.822% |
| Cc1cccc(NC(=O)CCNC(=O)c2ccc(Br)cc2)c1 | 13.8% |
| Nc1nc(-c2ccc3c(c2)NC(=O)CO3)cs1 | 17% |

| Compound | hERG current change (%, negative = inhibition) at 1uM |
| --- | --- |
| Cl.O=C(c1cc(-c2cccs2)nc2ccccc12)N1CCN(c2ccccc2)CC1 | 16.5% |
| CCN(CC)C(=O)N1CCN(Cc2ccc3c(c2)OCO3)CC1 | 4.9% |
| CN(C)c1ccc(/C=C/C(=O)c2ccc(O)cc2)cc1[N+](=O)[O-] | 8.92% |
| O=C(c1ccc2c3c(cccc13)CC2)C1CCCN(Cc2ccncc2)C1 (stereo not shown) | -2.25% |
| O=C(C/C=N\OCc1ccc([N+](=O)[O-])cc1)Nc1ccc(Cl)cc1 | -0.523% |
| CCOC(=O)CC1C(C(=O)OCC)ON2OC(C(=O)OC)C(C(=O)OCC)C12 (stereo not shown) | 8.28% |
| Cc1ccc(S(=O)(=O)N(C)c2ccc(OC(=O)CN3C(=O)NC4(CCCC4)C3=O)cc2)cc1 | -1.35% |
| COc1ccc(OCC(=O)NNc2nc3ccccc3s2)cc1 | 11.9% |
| O=C(CC(=O)N/N=C/c1c(F)cccc1Cl)NCCc1ccccc1 | 11.1% |
| Cn1c2ccccc2c(=O)c2c(=O)n(-c3ccccc3)c(-c3ccc(C(C)(C)C)cc3)nc21 | 14% |
| Cc1ccc(C2=NOC(C)(c3nnc(-c4cccc(Cl)c4)o3)C2)cc1 (stereo not shown) | 6.18% |
| O=C(CCCC(=O)N1CCCC1)N1CCCC1 | 11.8% |
| Cc1cccc(N(CC(=O)N2CCN(C)CC2)S(=O)(=O)c2ccccc2)c1 | 3.68% |
| CCCCN(CC)CCNC(=O)c1cc2c(=O)[nH]c3ccccc3c2s1 | 4.02% |
| O=[N+]([O-])c1cc(-c2cnc3ccccc3n2)ccc1Oc1ccc(F)cc1 | 13.2% |
| Nc1nc(NCc2ccco2)nc(Nc2ccc(F)cc2)c1[N+](=O)[O-] | 13.9% |
| COCCNS(=O)(=O)c1cc(OC)ccc1OC | 12.7% |
| COc1ccccc1C(=O)NNC(=O)c1ccc(Cl)cc1 | 4.71% |
| O=C(NN1C(=O)C2C(C1=O)C1C=CC2C12CC2)c1ccccc1 (stereo not shown) | -1.99% |
| COC(=O)c1c(Oc2nc(OC)cc(OC)n2)cccc1Oc1nc(OC)cc(OC)n1 | 8.82% |
| CC1CN(S(=O)(=O)Cc2ccccc2)CC(C)O1 (stereo not shown) | -4.59% |
| COc1cccc(C2c3[nH]c4ccccc4c3CCN2C(=O)c2ccccc2F)c1OC (stereo not shown) | 17.9% |

| Compound | hERG current change (%, negative = inhibition) at 1uM |
| --- | --- |
| CCc1cccc(C)c1NC(=O)C1=C(C(=O)O)CCCC1 | 3.02% |
| O=C1N[C@@H](Cc2cnc[nH]2)C(=O)N2CCC[C@@H]12 | 15.9% |
| C=CCC(C=C)[N+]1(CC(=O)OC)CCCCC1.[Br-] (stereo not shown) | 20.4% |
| COc1ccc(NC(=O)Nc2nnc(-c3ccccc3SCc3ccccc3)s2)cc1 | 6.28% |
| CC(C)C(=O)N1CCN(c2ccccc2NC(=O)c2cccc3ccccc23)CC1 | 1.8% |
| COc1ccccc1NC(=S)NCCC(c1ccccc1)c1ccccc1 | 5.27% |
| CCN1C(=O)C(O)(CC(=O)c2c(C)coc2C)c2ccccc21 (stereo not shown) | 15.7% |
| Cc1ccc(NC(=O)CSc2nc3sc(C)cc3c(=O)n2C)cc1 | 2.64% |
| Cn1c(CCC(N)=O)nnc1SCC(=O)Nc1ccccc1C(=O)NC1CC1 | -2.82% |
| CCNc1nc(SC(C)C(=O)OC)nc(N2CCOCC2)n1 (stereo not shown) | 6.64% |
| Cc1ccc(C(=O)O)cc1NS(=O)(=O)c1ccc2c(c1)oc(=O)n2C | 5% |
| COc1ccc(-n2c(CN3CCOCC3)nc3ccc([N+](=O)[O-])cc3c2=O)c(OC)c1 | 8.48% |
| COc1ccc(S(=O)(=O)N2CCCC2CNC(=O)C(=O)Nc2cccc(F)c2)cc1 (stereo not shown) | 4.01% |
| O=C(Nc1cccc(O)c1)c1cccc(NC(=O)c2cccs2)c1 | 8.88% |
| Cc1ccc2[nH]cc(CCNC(=O)c3ccc4c(c3)OCO4)c2c1 | 15.4% |
| CC(C)N(Cc1nc(-c2ccc3c(c2)OCO3)no1)Cc1nccn1C | 6.53% |
| Cc1nn(C(C)C(=O)NC2CC2)c(=O)c2nn(-c3ccccc3)c(C)c12 (stereo not shown) | 17.7% |
| CCOC(=O)C1=C(C)N=C2SCCC(=O)N2[C@@H]1/C=C/c1ccccc1 | 6.17% |
| Cc1ccc(NC(=O)CSc2nnc(C3CC3)n2CC2CCCO2)cc1C (stereo not shown) | 8.35% |
| O=C(Nc1ccccc1)OC1CC2CC1C1CCCC21 (stereo not shown) | 11.4% |
| COc1ccccc1N1CCN(C(=O)CSc2nc3ccccc3nc2N2CCC(C)CC2)CC1 | 15.1% |
| O=C(NCC(c1ccco1)N1CCc2ccccc2C1)c1ccccc1Cl (stereo not shown) | 1.71% |
